Lines with a small IC50 respond at low doses; where the fit passes the top or lowest dose, that dose stands as a limit. AUC, from the same fit, is the share of area under the viability curve across the 256-fold dose range; it is 1 without any effect and falls as sensitivity rises. For part of these data: An inferred top dose was derived from the fitted curves, not read from the paper. For part of these data: An entry number marks a drug with two screens in the source, which often give different values.
Legend:
Assay in all cases: Viability of human cancer cell lines after 72 h of drug (GDSC screen)
Cytarabine = compound: Nc1ccn([C@@H]2O[C@H](CO)[C@@H](O)[C@@H]2O)c(=O)n1 [Cytarabine]; conditions: top dose 2 µM
Method: (§1)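 Human cancer cell lines in 384-well plates, medium with 10% serum, drug for 72 h over a 256-fold dose range (nine 2-fold or five 4-fold steps up to the top dose). Adherent lines were fixed and stained with the nucleic acid dye Syto60, suspension lines read with resazurin; signal relative to control wells, capped at 0 and 100%. One two-parameter sigmoid per drug and line, fitted in a mixed model over all curves with the slope shared within a line.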

CP466722 = compound: COc1cc2ncnc(-n3nc(-c4ccccn4)nc3N)c2cc1OC [CP466722]; conditions: top dose 16 µM; top dose inferred
Method: as §1

QL-X-138 = compound: C=CC(=O)Nc1cc(-n2c(=O)ccc3cnc4ccc(-c5cn[nH]c5)cc4c32)ccc1C [QL-X-138]; conditions: top dose 10.24 µM; top dose inferred
Method: as §1

CMK = compound: Cc1ccc(-c2c(C(=O)CCl)n(CCCO)c3ncnc(N)c23)cc1 [CMK]; conditions: top dose 4 µM; top dose inferred
Method: as §1

ABT-869 = compound: Cc1ccc(F)c(NC(=O)Nc2ccc(-c3cccc4[nH]nc(N)c34)cc2)c1 [ABT-869]; conditions: top dose 1.024 µM; top dose inferred
Method: as §1

MPS-1-IN-1 = compound: COc1cc(N2CCC(O)CC2)ccc1Nc1cc(Nc2ccccc2S(=O)(=O)C(C)C)c2cc[nH]c2n1 [MPS-1-IN-1]; conditions: top dose 20 µM; top dose inferred
Method: as §1

Zibotentan = compound: COc1nc(C)cnc1NS(=O)(=O)c1cccnc1-c1ccc(-c2nnco2)cc1 [Zibotentan]; conditions: top dose 20 µM; top dose inferred
Method: as §1

ABT-888 = compound: C[C@]1(c2nc3c(C(N)=O)cccc3[nH]2)CCCN1 [ABT-888]; conditions: top dose 5 µM; top dose inferred
Method: as §1

KU-55933 = compound: O=c1cc(-c2cccc3c2Sc2ccccc2S3)oc(N2CCOCC2)c1 [KU-55933]; conditions: top dose 10 µM
Method: as §1

GSK269962A = compound: CCn1c(-c2nonc2N)nc2cnc(Oc3cccc(NC(=O)c4ccc(OCCN5CCOCC5)cc4)c3)cc21 [GSK269962A]; conditions: top dose inferred
Method: as §1

Thapsigargin = compound: C/C=C(/C)C(=O)O[C@H]1C(C)=C2[C@H]([C@@H]1OC(=O)CCCCCCC)[C@@](C)(OC(C)=O)C[C@H](OC(=O)CCC)[C@@]1(O)[C@H]2OC(=O)[C@@]1(C)O [Thapsigargin]; conditions: top dose 0.512 µM; top dose inferred
Method: as §1

(5Z)-7-Oxozeaenol = compound: COc1cc(O)c2c(c1)/C=C/C[C@H](O)[C@H](O)C(=O)/C=C\C[C@H](C)OC2=O [(5Z)-7-Oxozeaenol]; conditions: top dose 10 µM; top dose inferred
Method: as §1

CHIR-99021 = compound: Cc1cnc(-c2cnc(NCCNc3ccc(C#N)cn3)nc2-c2ccc(Cl)cc2Cl)[nH]1 [CHIR-99021]
Method: as §1

[1] = top dose 2.5 µM, screen: GDSC drug entry 127
[2] = top dose 5 µM, screen: GDSC drug entry 1192
[3] = top dose 2.56 µM, screen: GDSC drug entry 154
[4] = top dose 10 µM, screen: GDSC drug entry 1241, top dose inferred

Row | Cell Line | AUC (Cytarabine) | IC50 (Cytarabine) [µM] | AUC (CP466722) | IC50 (CP466722) [µM] | AUC (QL-X-138) | IC50 (QL-X-138) [µM] | AUC (CMK) | IC50 (CMK) [µM] | AUC (ABT-869) | IC50 (ABT-869) [µM] | AUC (MPS-1-IN-1) | IC50 (MPS-1-IN-1) [µM] | AUC (Zibotentan) | IC50 (Zibotentan) [µM] | AUC (ABT-888) | IC50 (ABT-888) [µM] | AUC (KU-55933) | IC50 (KU-55933) [µM] | AUC (GSK269962A; [1]) | IC50 (GSK269962A; [1]) [µM] | AUC (GSK269962A; [2]) | IC50 (GSK269962A; [2]) [µM] | AUC (Thapsigargin) | IC50 (Thapsigargin) [µM] | AUC ((5Z)-7-Oxozeaenol) | IC50 ((5Z)-7-Oxozeaenol) [µM] | AUC (CHIR-99021; [3]) | IC50 (CHIR-99021; [3]) [µM] | AUC (CHIR-99021; [4]) | IC50 (CHIR-99021; [4]) [µM]
1 | NCI-H720 (lung carcinoid, suspension) | 0.981 | > 2 | 0.991 | > 16 | 0.992 | > 10.2 | 0.926 | > 4 | 0.992 | > 1.02 | 0.992 | > 20 | 0.992 | > 20 | 0.992 | > 5 | 0.987 | > 10 | 0.833 | 1.43 | 0.938 | > 5 | 0.991 | > 0.512 | 0.832 | 5.67 | 0.991 | > 2.56 | 0.991 | > 10
2 | NCI-H747 (large intestine, adherent) | 0.838 | 1.81 | 0.72 | 4.9 | 0.543 | 0.859 | 0.818 | 2.91 | 0.937 | > 1.02 | 0.83 | 16.5 | 0.978 | > 20 | 0.98 | > 5 | 0.978 | > 10 | 0.976 | > 2.5 | 0.941 | > 5 | 0.594 | 0.0615 | 0.44 | 0.412 | 0.954 | > 2.56 | 0.92 | > 10
3 | NCI-H847 (small cell lung carcinoma, adherent) | 0.993 | > 2 | 0.828 | 7.41 | 0.449 | 0.477 | 0.898 | 3.33 | 0.963 | > 1.02 | 0.78 | 6.66 | 0.992 | > 20 | 0.993 | > 5 | 0.975 | > 10 | 0.879 | 1.75 | 0.618 | 0.617 | 0.084 | < 0.002 | 0.808 | 4.02 | 0.993 | > 2.56 | 0.897 | 8.21
4 | NCI-H1092 (small cell lung carcinoma, suspension) | 0.99 | > 2 | 0.89 | > 16 | 0.748 | 3.33 | 0.972 | > 4 | 0.983 | > 1.02 | 0.974 | > 20 | 0.984 | > 20 | 0.987 | > 5 | 0.99 | > 10 | 0.962 | > 2.5 | 0.987 | > 5 | 0.861 | 0.44 | 0.942 | > 10 | 0.99 | > 2.56 | 0.989 | > 10
5 | NCI-H1304 (small cell lung carcinoma, suspension) | 0.972 | > 2 | 0.736 | 5 | 0.833 | 7.33 | 0.982 | > 4 | 0.987 | > 1.02 | 0.988 | > 20 | 0.987 | > 20 | 0.987 | > 5 | 0.959 | > 10 | 0.919 | > 2.5 | 0.937 | > 5 | 0.611 | 0.0664 | 0.837 | 7.48 | 0.984 | > 2.56 | 0.944 | > 10
6 | NCI-H1395 (lung adenocarcinoma, adherent) | 0.848 | > 2 | 0.898 | > 16 | 0.915 | > 10.2 | 0.958 | > 4 | 0.981 | > 1.02 | 0.978 | > 20 | 0.981 | > 20 | 0.977 | > 5 | 0.935 | > 10 | 0.952 | > 2.5 | 0.854 | > 5 | 0.673 | 0.115 | 0.9 | > 10 | 0.982 | > 2.56 | 0.939 | > 10
7 | NCI-H1417 (small cell lung carcinoma, suspension) | 0.386 | 0.0571 | 0.892 | > 16 | 0.973 | > 10.2 | 0.931 | > 4 | 0.887 | > 1.02 | 0.908 | > 20 | 0.975 | > 20 | 0.981 | > 5 | 0.946 | > 10 | 0.818 | 1.76 | 0.745 | 1.84 | 0.847 | 0.491 | 0.509 | 0.662 | 0.969 | > 2.56 | 0.974 | > 10
8 | NCI-H1436 (small cell lung carcinoma, suspension) | 0.983 | > 2 | 0.896 | > 16 | 0.771 | 4.48 | 0.986 | > 4 | 0.983 | > 1.02 | 0.933 | > 20 | 0.984 | > 20 | 0.969 | > 5 | 0.977 | > 10 | 0.803 | 1.46 | 0.754 | 1.89 | 0.939 | > 0.512 | 0.774 | 4.49 | 0.985 | > 2.56 | 0.936 | > 10
9 | NCI-H1648 (lung adenocarcinoma, adherent) | 0.927 | > 2 | 0.707 | 3.99 | 0.734 | 3.12 | 0.922 | > 4 | 0.983 | > 1.02 | 0.843 | 15.5 | 0.972 | > 20 | 0.984 | > 5 | 0.897 | > 10 | 0.983 | > 2.5 | 0.984 | > 5 | 0.171 | 0.00295 | 0.843 | 7.75 | 0.961 | > 2.56 | 0.818 | 6.11
10 | NCI-H1694 (small cell lung carcinoma, suspension) | 0.967 | > 2 | 0.827 | 9.7 | 0.771 | 3.89 | 0.875 | 3.9 | 0.986 | > 1.02 | 0.937 | > 20 | 0.988 | > 20 | 0.989 | > 5 | 0.987 | > 10 | 0.972 | > 2.5 | 0.89 | > 5 | 0.665 | 0.0918 | 0.707 | 2.39 | 0.989 | > 2.56 | 0.975 | > 10
11 | NCI-H1770 (non-small cell lung carcinoma, suspension) | 0.992 | > 2 | 0.908 | > 16 | 0.958 | > 10.2 | 0.942 | > 4 | 0.992 | > 1.02 | 0.888 | 17.6 | 0.989 | > 20 | 0.992 | > 5 | 0.992 | > 10 | 0.986 | > 2.5 | 0.93 | > 5 | 0.294 | 0.00918 | 0.89 | 9.06 | 0.972 | > 2.56 | 0.989 | > 10
12 | NCI-H1836 (small cell lung carcinoma, suspension) | 0.988 | > 2 | 0.901 | > 16 | 0.852 | 9.15 | 0.975 | > 4 | 0.988 | > 1.02 | 0.984 | > 20 | 0.988 | > 20 | 0.985 | > 5 | 0.988 | > 10 | 0.963 | > 2.5 | 0.936 | > 5 | 0.855 | 0.474 | 0.874 | > 10 | 0.988 | > 2.56 | 0.986 | > 10
13 | NCI-H1838 (lung adenocarcinoma, adherent) | 0.956 | > 2 | 0.93 | > 16 | 0.946 | > 10.2 | 0.982 | > 4 | 0.987 | > 1.02 | 0.955 | > 20 | 0.986 | > 20 | 0.973 | > 5 | 0.834 | 8.53 | 0.986 | > 2.5 | 0.927 | > 5 | 0.971 | > 0.512 | 0.897 | > 10 | 0.986 | > 2.56 | 0.934 | > 10
14 | NCI-H1869 (lung squamous cell carcinoma, adherent) | 0.882 | > 2 | 0.791 | 8.25 | 0.839 | 8.31 | 0.972 | > 4 | 0.98 | > 1.02 | 0.979 | > 20 | 0.985 | > 20 | 0.983 | > 5 | 0.857 | 9.86 | 0.958 | > 2.5 | 0.809 | 3.04 | 0.531 | 0.0393 | 0.418 | 0.362 | 0.968 | > 2.56 | 0.934 | > 10
15 | NCI-H1876 (small cell lung carcinoma, adherent) | 0.865 | 1.81 | 0.819 | 9.27 | 0.573 | 1.02 | 0.873 | 3.91 | 0.984 | > 1.02 | 0.971 | > 20 | 0.978 | > 20 | 0.987 | > 5 | 0.951 | > 10 | 0.93 | > 2.5 | 0.967 | > 5 | 0.847 | 0.383 | 0.856 | 8.22 | 0.987 | > 2.56 | 0.986 | > 10

Source: the supplement of paper PMC4967469
